The values that follow come from the supplement of paper PMC9446081.

The structures appear in SMILES notation. The whole screen tested about 39,000 compounds, of which about 220 (0.56%) showed activity. The list shows a part of the results.
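Note: static incubation at 37 °C against the wild-type strain, values averaged over two biological replicates.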

This assay concerns Escherichia coli K-12 BW25113. The assay can be described thus: relative growth (OD600 normalised to plate interquartile mean) (fraction); higher = less growth inhibition, active = 0.2 or less. The conditions noted are these: 50 µM; LB; incubation time: overnight (16-24 h).
As for `COCC(=O)N1C[C@@H]2c3ccccc3CN[C@@H]2C1`, the relative growth is inactive: 0.986.
Under `Nc1ccc(N2CCNCC2)cc1` stands inactive: 0.98; under `Cc1nc(N)sc1CCN`, inactive: 1.02; under `CC1OC(OC2C(O)C(O)C(O)C(O)C2O)C(N)CC1NC(=N)C(=O)O.Cl` (stereo not given), inactive: 0.892.
With `Cc1ccc(C=C2C(=O)NC(=O)NC2=O)cc1`, the relative growth was inactive: 1.04.
The value for `Cc1ccc(OC(=O)N(C)C[C@H]2OCc3ccccc3-c3c(n(C)c4ccccc34)C(=O)N([C@@H](C)CO)C[C@@H]2C)cc1` was inactive: 0.99; that for `Cc1cnc[nH]1` was inactive: 0.989; that for `CN1C(=O)/C(=C/c2cn(CC(=O)N3CCOCC3)c3ccccc23)C(=O)NC1=S` was inactive: 1.04.
Under `COc1ccc([C@H]2CC(=O)N3CCNC[C@@H]23)cc1` stands inactive: 1.03; under `O=C1NC(=S)NC(=O)C1CN1CCOCC1`, inactive: 0.954; under `CN1C[C@H]2CN(Cc3nccn3C)C[C@H]2C1=O`, inactive: 0.961.
For the molecule `CC(C)[C@H](N)C(=O)N1CCC[C@H]1B(O)O`, the relative growth is inactive: 0.997.
The value for `Cc1ccc(OC(=O)N(C)C[C@H]2OCc3ccccc3-c3c(n(C)c4ccccc34)C(=O)N([C@@H](C)CO)C[C@H]2C)cc1` was inactive: 0.992.
Under `NC[C@@H](CS(=O)(=O)O)c1ccc(Cl)cc1` stands inactive: 0.984; under `C1CC(NC2CCOCC2)CCO1`, inactive: 1.06.
Under `CCOC(=O)c1c(CN2CCN(c3ccccc3)CC2)n(Cc2ccccc2)c2cc(Br)c(O)cc12` stands inactive: 1.03.
Turning to `COCC12CN(C=O)C3C4C(OC)C1C3(C(OC)CC2O)C1CC2(O)C(OC)C(O)C4(OC(C)=O)C1C2OC(=O)c1ccccc1` (stereo not given), the relative growth was inactive: 1.04.
Under `N#C[C@H]1NCc2cnnn2-c2ccccc21` stands inactive: 0.992; under `CN1C[C@@H]2C[C@H](C(=O)Nc3cccnc3)[C@@H](C1)O2`, inactive: 0.97; under `CC(C)(O)C1C2OC(=O)C1C1(O)CC3OC34C(=O)OC2C14C` (stereo not given), inactive: 0.926.
The value for `O.O.O.O=C([O-])C1[O][Sb]2[O]C(=O)C([O]2)C(C(=O)[O-])[O][Sb]2[O]C(=O)C1[O]2.[K+].[K+]` (stereo not given) was inactive: 0.651; that for `N#C[C@H](O[C@@H]1O[C@H](CO[C@@H]2O[C@H](CO)[C@@H](O)[C@H](O)[C@H]2O)[C@@H](O)[C@H](O)[C@H]1O)c1ccccc1` was inactive: 0.992; that for `NC(Cc1ccc(N(CCCl)CCCl)cc1)C(=O)O` (stereo not given) was inactive: 0.99.
Under `NCCc1nc2ccccc2[nH]1` stands inactive: 1.03; under `NCCc1ccc(S(N)(=O)=O)cc1`, inactive: 1.01; under `CCC1(O)CC(O)c2c(cc3c(c2O)C(=O)c2c(O)ccc(O)c2C3=O)C1C(=O)OC` (stereo not given), inactive: 1.05.
Consider `CC1C(=O)OC2CCN3CC=C(COC(=O)C(C)(O)C1(C)O)C23` (stereo not given), for which the relative growth was inactive: 0.993.
Under `COCC(=O)N1[C@@H]2c3ccc(C4=CCCC4)c(=O)n3C[C@H]1[C@H](CO)[C@H]2C(=O)OC` stands inactive: 1.01.
Under `NC(=O)[C@H]1CNC(=O)C1` stands inactive: 0.998; under `N[C@H]1C[C@H]1c1ccccc1`, inactive: 0.987.
The value for `O=C(O)C[C@@H]1CC[C@H]2NC[C@@H](O)COC[C@@H]2O1` was inactive: 0.921; that for `N=C(N)/N=C(\N)Nc1ccc(Cl)cc1` was inactive: 0.727.
Regarding `Cc1ccnc(N2CCNCC2)c1`, the relative growth was inactive: 0.989.
Regarding `CNCC(O)c1ccc(O)cc1.CNCC(O)c1ccc(O)cc1.O=C(O)C(O)C(O)C(=O)O` (stereo not given), the relative growth is inactive: 1.06.
The value for `CC(=O)OC1C2CCC3C(C)(O)C4CC(O)C(C)(C)C4(O)C(O)CC13CC2(C)O` (stereo not given) was inactive: 1.14.
As to `CCO[C@H]1[C@H]2CC[C@@H]1NC2`, the relative growth is inactive: 1.02.
The value for `O=c1c(O)c(-c2ccc(O)c(O)c2)oc2c(O)c(O)cc(O)c12` was inactive: 1.11; that for `CN1C(=O)[C@]23CC4=CC=C[C@H](O)[C@H]4N2C(=O)[C@@]1(CO)SS3` was active: 0.0665.
The value for `CCCCC(=O)N1CC[C@H]2CNC[C@H]21` was inactive: 0.938.
The value for `Cc1cc(CCN)on1` was inactive: 0.974; that for `O.O=P1(N(CCCl)CCCl)NCCCO1` (stereo not given) was inactive: 1.09; that for `Cl.OC1CCCCC1N1CCC(c2ccccc2)CC1` (stereo not given) was inactive: 1.13.
For the molecule `C(=N/C12CN3CN(CN(C3)C1)C2)/c1cccnc1`, the relative growth is inactive: 0.977.
For the molecule `O=C(O)[C@H]1C[C@H]2CCCCN2C1`, the relative growth is inactive: 1.03.
Turning to `COCCCNC(=O)[C@@]1(Cc2ccccc2CN=[N+]=[N-])N=C(c2ccc(OCCCO)cc2)O[C@H]1c1ccccc1N=[N+]=[N-]`, the relative growth is inactive: 1.02.
Under `NCC(=O)c1ccccc1` stands inactive: 1; under `CC(C)(C)[C@@]1(O)C[C@H]2OC(=O)C[C@]23C(=O)O[C@H]2OC(=O)[C@@H](O)[C@]231`, inactive: 1.01; under `CC[C@@H](C)NC=C1C(=O)NC(=O)NC1=O`, inactive: 1.01.
With `CN(C)C(=O)Oc1cccc([N+](C)(C)C)c1.COS(=O)(=O)[O-]`, the relative growth is inactive: 0.889.
Under `CC[C@H]1/C=C/C=C/C[C@@H](C)[C@H](O)[C@@](C)(O)C(=O)[C@@H](C)[C@H](O)[C@@H](C)C(=O)[C@@H](C)[C@H](O)[C@@H](C)/C=C/C(=O)O[C@@H]2[C@H](C)[C@H](CC1)O[C@]1(CC[C@H](C)[C@H](C[C@@H](C)O)O1)[C@H]2C` stands inactive: 0.939; under `Nc1ccc(Cl)cc1Cl`, inactive: 1.02; under `OC[C@@H](O)Cc1ccc2c(c1)OCO2`, inactive: 1.01.
Under `Cc1c(N)nc([C@H](CC(N)=O)NC[C@@H](N)C(N)=O)nc1C(=O)N[C@H](C(=O)N[C@@H](C)[C@H](O)[C@@H](C)C(=O)N[C@@H](C(=O)NCCc1nc(-c2nc(C(=O)NCCC[S+](C)C)cs2)cs1)[C@@H](C)O)[C@@H](O[C@H]1O[C@H](CO)[C@H](O)[C@@H](O)[C@H]1O[C@H]1O[C@H](CO)[C@@H](O)[C@H](OC(N)=O)[C@@H]1O)c1c[nH]cn1` stands active: 0.0355; under `CC(C)(N)Cc1ccccc1`, inactive: 0.989.
The value for `CN(C)[C@@H]1C(=O)[C@@H](C(N)=O)C(=O)[C@@]2(O)C(=O)[C@H]3C(=O)c4c(O)ccc(Cl)c4[C@@](C)(O)[C@H]3C[C@@H]12` was active: 0.037.
Consider `O=[N+]([O-])c1c(NCCO)ccc2nonc12`, for which the relative growth was inactive: 1.01.
The value for `NC(=O)CN1CC[C@@H](NC(=O)[C@@H]2CCCN2)C1=O` was inactive: 1.02; that for `COc1ccc(C(=O)O)cc1OC` was inactive: 1.09; that for `CN(C)C(=O)Oc1ccc[n+](C)c1.[Br-]` was inactive: 0.96.
Under `COc1ccc(OC)c(CN)c1` stands inactive: 1; under `O=C1CNC[C@@H]2c3cccc(F)c3CCN12`, inactive: 0.961; under `CCN(CC)S(=O)(=O)c1ccc(Cn2nc(C(=O)Nc3ccc(N4CCCCC4)cc3)c3ccccc32)cc1`, inactive: 0.995.
The value for `NC1(c2cccc(Cl)c2)CC1` was inactive: 1.02.
Take `C=C(CCCCCCCCCCCCCCCC)OOC[C@@H](COP(=O)(ON)O[C@@H]1[C@H](O)[C@H](O)[C@@H](OP(=O)(O)ON)[C@H](OP(=O)(O)ON)[C@H]1O)OOC(=C)CC/C=C/C/C=C/C/C=C/C/C=C/CCCCC` (stereo not given in full): the relative growth was inactive: 1.01.
For `CC(C)[C@@H]1NC[C@@H]2CCCN2C1=O`, the relative growth was inactive: 0.992.
The value for `N[C@@H](c1ccccc1)[C@@H](N)c1ccccc1` was inactive: 0.986; that for `Cc1ccc(CC2(N)CC2)cc1` was inactive: 0.977.
Consider `CN1CCCCC1c1ccc(-c2cccnc2)nc1.Cl` (stereo not given), for which the relative growth was inactive: 0.864.
Under `C[C@@H]1CN([C@@H](C)CO)C(=O)CCCn2nncc2CO[C@H]1CN(C)C(=O)Oc1ccc2ccccc2c1` stands inactive: 0.968.
The value for `CNCC(O)c1ccc(O)cc1` (stereo not given) was inactive: 0.824.
The value for `C#CCN(C)C(C)Cc1ccccc1.Cl` (stereo not given) was inactive: 1.01; that for `COC(=O)[C@H]1[C@H]2CO[C@@H]1CN2` was inactive: 0.993; that for `CCn1cc2nc(N3CCNCC3)[nH]cc-2c1=O` was inactive: 1.04.
Consider `Cn1cc(C(=O)Nc2nn[nH]n2)c2ccccc21`, for which the relative growth was inactive: 1.02.
The value for `O=C(NC[C@@H]1CC[C@H]2NC[C@H]2O1)C1CCCC1` was inactive: 1.03; that for `O=C(NC(=O)c1ccccc1Cl)Nc1ccc(OC(F)(F)F)cc1` was inactive: 1.1; that for `COC(=O)[C@@]1(Cc2ccccc2CN=[N+]=[N-])N=C(c2ccc(OCCCO)cc2)O[C@H]1c1ccccc1CN=[N+]=[N-]` was inactive: 1.04.
Under `Cc1nc(-c2ccc(-c3ccc(C(=O)N4CCc5cc6c(cc54)C4(CCN(C)CC4)CO6)cc3)c(C)c2)no1` stands inactive: 0.932; under `COc1cc2c(cc1C=O)OCO2`, inactive: 0.989; under `CC(=O)OCC1=C2C(=O)[O][Zn][O]C(=O)[C@@H](N)CCCC(=O)N[C@@H]3C(=O)N2[C@@H]3SC1`, inactive: 1.06.
The value for `C[C@@H](N)Cc1c[nH]c2ccc(O)cc12` was inactive: 0.986.
Turning to `CNC(C)C(O)c1ccccc1.Cl` (stereo not given), the relative growth was inactive: 1.14.
Under `COC(=O)C[C@@H]1CC[C@H]2NC[C@H](O)COC[C@@H]2O1` stands inactive: 1; under `CCC(=O)CCCCC[C@@H]1NC(=O)[C@H]2CCCCN2C(=O)[C@H]([C@H](C)CC)NC(=O)[C@H](Cc2cn(OC)c3ccccc23)NC1=O`, inactive: 1.
Under `CC(NC(C)(C)C)C(=O)c1cccc(Cl)c1.Cl` (stereo not given) stands inactive: 0.976; under `O=C(O)[C@H]1[C@H](C(=O)O)[C@H]2CC[C@@H]1O2`, inactive: 1.01.
The value for `C[C@@H]1CN([C@@H](C)CO)C(=O)c2c(c3ccccc3n2C)-c2ccccc2CO[C@H]1CN(C)C(=O)Oc1ccccc1` was inactive: 1.01; that for `CNC(Cc1c[nH]c2ccccc12)C(=O)O` (stereo not given) was inactive: 1.07; that for `CCOP(=S)(OCC)Oc1cc(C)nc(C(C)C)n1` was inactive: 1.12.
For the molecule `CC(C)(C)[C@]1(O)C[C@@H]2OC(=O)C[C@@]23C(=O)O[C@@H]2OC(=O)[C@H](O)[C@]213`, the relative growth is inactive: 0.998.
